Data on 94 sequences can be found in the supplement of paper PMC4466236.

In all, about 33,000 sequences were measured (“E-score (dimensionless, -0.5 to 0.5)”: median about -0.058, highest 2% from about 0.35 on). Some of the results follow.

In this test the test system is MvaT. Put plainly: PBM 8-mer E-score (mean of HK and ME arrays) (E-score (dimensionless, -0.5 to 0.5)); higher = stronger relative binding preference; most listed sequences are background and not binding sites. The procedure, abridged:
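Full-length P. aeruginosa MvaT, with glutathione S-transferase fused to its N-terminus (cloned into pTH6838 by isothermal assembly), was tested by protein binding microarray using a previously described protocol. Two universal double-stranded 60-mer arrays (ME and HK) were used, each with a constant 25-mer primer region and a variable 35-mer region covering all 8-mers. The rank-based 8-mer E-score (-0.5 to 0.5) is the mean of the two arrays, parsed with a custom Python script.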
As to CACAGTTC, the “PBM 8-mer E-score” value was determined as 0.0722.

Consider CACTTTCG, for which the “PBM 8-mer E-score” value was -0.114.

Consider GCGATATA, for which the “PBM 8-mer E-score” value was 0.361.

In the case of AAGAAGAA, the “PBM 8-mer E-score” value was -0.0743.

In the case of CAGAGGGA, the “PBM 8-mer E-score” value was -0.175.

Turning to CGGAACAC, the “PBM 8-mer E-score” value was -0.0626.

As to AGTCGTTG, the “PBM 8-mer E-score” value was determined as 0.00501.

Take ATACGCGC: the “PBM 8-mer E-score” value was found to be 0.108.

For ATGTCGCA, the “PBM 8-mer E-score” value was -0.0506.

For the sequence AGGTGTTC, the “PBM 8-mer E-score” value is -0.137.

For CCTACCGC, the “PBM 8-mer E-score” value is -0.179.

For the sequence AGCTATTG, the “PBM 8-mer E-score” value came out at 0.148.

With CAGGGGGG, the “PBM 8-mer E-score” value is -0.222.

As to TCTATCCA, the “PBM 8-mer E-score” value was determined as 0.022.

Turning to TAGACACA, the “PBM 8-mer E-score” value was found to be 0.00939.

With AGTTGTCA, the “PBM 8-mer E-score” value was 0.0771.

In the case of ACTTATCA, the “PBM 8-mer E-score” value was 0.196.

Take ATAAGGGG: the “PBM 8-mer E-score” value was -0.0441.

Take GCCTCAAC: the “PBM 8-mer E-score” value was -0.106.

On to TAATGCCA, for which the “PBM 8-mer E-score” value came out at 0.115.

Regarding ACTTCCTG, the “PBM 8-mer E-score” value amounted to 0.116.

Turning to GAATCAAA, the “PBM 8-mer E-score” value was found to be 0.13.

In the case of ATACTTAC, the “PBM 8-mer E-score” value worked out at 0.305.

For CGATGCAG, the “PBM 8-mer E-score” value is -0.139.

For the sequence GCATTACA, the “PBM 8-mer E-score” value was 0.0726.

Turning to CAAAAACC, the “PBM 8-mer E-score” value is -0.0563.

With CTGACAGC, the “PBM 8-mer E-score” value is -0.246.

GCTGGGGA: the “PBM 8-mer E-score” value was -0.258.

For CTCGCACA, the “PBM 8-mer E-score” value was -0.12.

Turning to ATGTGTCC, the “PBM 8-mer E-score” value came out at 0.0838.

As to GGCTGGAA, the “PBM 8-mer E-score” value is -0.171.

Consider CGTTTTGC, for which the “PBM 8-mer E-score” value came out at 0.0694.

With CCAAAGTC, the “PBM 8-mer E-score” value stood at 0.0274.

Regarding CCCTGCAG, the “PBM 8-mer E-score” value is -0.29.

With CCTTCACG, the “PBM 8-mer E-score” value was -0.149.

In the case of GGCCAAGA, the “PBM 8-mer E-score” value is -0.156.

For the sequence CGTGAGAG, the “PBM 8-mer E-score” value was -0.085.

AACTAAGT: the “PBM 8-mer E-score” value worked out at 0.218.

AAGCGATC: the “PBM 8-mer E-score” value was -0.18.

Regarding TAATCCTA, the “PBM 8-mer E-score” value stood at 0.0852.

AAACACAC: the “PBM 8-mer E-score” value stood at 0.156.

For the sequence AACATGAT, the “PBM 8-mer E-score” value came out at 0.174.

Consider CACGAACC, for which the “PBM 8-mer E-score” value was -0.245.

On to CGCAAGAG, for which the “PBM 8-mer E-score” value was found to be 0.0446.

As for GGGGCTAC, the “PBM 8-mer E-score” value is -0.268.

On to ACGGTACT, for which the “PBM 8-mer E-score” value is -0.0571.

In the case of GGATAGAC, the “PBM 8-mer E-score” value was -0.273.

For ACCTACAT, the “PBM 8-mer E-score” value stood at 0.14.

With TGGTACCA, the “PBM 8-mer E-score” value was -0.0714.

ACGACATG: the “PBM 8-mer E-score” value is -0.0211.

In the case of CAGCAATC, the “PBM 8-mer E-score” value was -0.13.

For GGGTTAGA, the “PBM 8-mer E-score” value is -0.0965.

For CATCAACG, the “PBM 8-mer E-score” value is -0.0375.

For ACATCACT, the “PBM 8-mer E-score” value was determined as 0.0816.

Turning to GATAGGAC, the “PBM 8-mer E-score” value was -0.129.

As for AAGAGTGT, the “PBM 8-mer E-score” value was 0.105.

As to CAAGAAGA, the “PBM 8-mer E-score” value is -0.00181.

For AAAACCCG, the “PBM 8-mer E-score” value amounted to 0.101.

As to CTATTCAC, the “PBM 8-mer E-score” value was -0.0265.

As to ATCGCTTG, the “PBM 8-mer E-score” value was -0.175.

Turning to AAGTACGT, the “PBM 8-mer E-score” value amounted to 0.0621.

In the case of CGGGATCA, the “PBM 8-mer E-score” value is -0.122.

As to CCTTTGTA, the “PBM 8-mer E-score” value is -0.1.

Take CCACTGGG: the “PBM 8-mer E-score” value was -0.218.

On to AGGCAATC, for which the “PBM 8-mer E-score” value is -0.0359.

Regarding ACTTTTCA, the “PBM 8-mer E-score” value was found to be 0.188.

Turning to GTCGGCAC, the “PBM 8-mer E-score” value was -0.256.

As for ACGAATGC, the “PBM 8-mer E-score” value is -0.187.

AGCCCAAT: the “PBM 8-mer E-score” value was -0.00706.

On to CACGTGAA, for which the “PBM 8-mer E-score” value is 0.0328.

AGCACACG: the “PBM 8-mer E-score” value was -0.185.

As to AAAATAAC, the “PBM 8-mer E-score” value was 0.378.

Consider CGCGGACC, for which the “PBM 8-mer E-score” value was -0.283.

For AGTGGATC, the “PBM 8-mer E-score” value was -0.147.

For the sequence ATATGGCG, the “PBM 8-mer E-score” value turned out to be 0.248.

Regarding GGTCAAGA, the “PBM 8-mer E-score” value was -0.178.

CAGGGTAA: the “PBM 8-mer E-score” value is -0.098.

For the sequence CCTACTAG, the “PBM 8-mer E-score” value was -0.145.

On to CAGGATCA, for which the “PBM 8-mer E-score” value is -0.0557.

Consider TATGGAAA, for which the “PBM 8-mer E-score” value came out at 0.221.

As to CGGACATC, the “PBM 8-mer E-score” value is -0.195.

For CGCCGAAA, the “PBM 8-mer E-score” value is -0.0708.

CTCGATGC: the “PBM 8-mer E-score” value is -0.275.

For the sequence GGCTACTA, the “PBM 8-mer E-score” value was -0.203.

As for GGTACGAC, the “PBM 8-mer E-score” value is -0.242.

For the sequence CATCCCAA, the “PBM 8-mer E-score” value is -0.0621.

Consider CAGACAGA, for which the “PBM 8-mer E-score” value was -0.0731.

With ACGATCAT, the “PBM 8-mer E-score” value is -0.00124.

Consider CATATCTC, for which the “PBM 8-mer E-score” value was found to be 0.085.

As for GCCGAGAC, the “PBM 8-mer E-score” value is -0.167.

Take CACTCCGC: the “PBM 8-mer E-score” value is -0.245.

Regarding GCACTCCA, the “PBM 8-mer E-score” value was -0.261.

As to ACTTTCAG, the “PBM 8-mer E-score” value turned out to be 0.0974.

As to AGGGGGAT, the “PBM 8-mer E-score” value was -0.247.
